The target of assay [1] is T1, K-Ras G12V (Homo sapiens, UniProt P01116, G12V). In words: SOS1 catalyzed nucleotide exchange assay (GDP form K-Ras), TR-FRET. As to conditions: read-out: Biochemical assays, IC50, K-Ras G12V GDP. As for the experimental part: The parameters were F486: Excitation 340 nm, Emission 486 nm, Lag time 100 pas, Integration time 200 pas; F515: Excitation 340 nm, Emission 515 nm, Lag time 100 pas, Integration time 200 pas. TR-FRET ratios for each individual wells were calculated by equation: TR-FRET ratio=(Signal F515/Signal F486)*10000.

Assay [2] deals with T1, K-Ras G12V. The assay can be described thus: GTP-K-Ras (GppNp-K-Ras) and cRAF interaction assay, HTRF. As to conditions: read-out: Biochemical assays, IC50, K-Ras G12V GppNp. An excerpt: (§1) GppNp is an analog of GTP.
A further assay deals with K-Ras G12D (Homo sapiens, UniProt P01116, G12D). Described as above. As to conditions: read-out: Biochemical assays, IC50, K-Ras G12D GppNp.
Text: as §1

The subject of assay [3] is K-Ras mutant and K-Ras WT cell lines indicated in Table 20. In words: 2D cell growth inhibition assay (CellTiter-Glo, 6 days). In kind it is cell-based. As for the experimental part:
Each of cells in culture medium was plated in TC-treated 96-well plates at a density indicated in Table 20 and incubated in a cell incubator overnight.

[4] abbreviates: Homo sapiens, SW-620, 144 h, SW620 (K-Ras G12V), absolute IC50, read-out: Cell Growth Inhibition, IC50, SW620.

Where two headings read alike, the source gives them in different places.

For the compound `C#Cc1c(F)ccc2cc(O)cc(-c3ncc4c(N(C)[C@@H]5C[C@H]5F)nc(OC[C@@]56CCCN5C[C@H](O)C6)nc4c3F)c12` (mixture of isomers) [Compound 9, (2R,7aS)-7a-(((7-(8-ethynyl-7-fluoro-3-hydroxynaphthalen-1-yl)-8-fluoro-4-((trans-2-fluorocyclopropyl)(methyl)amino)pyrido[4,3-d]pyrimidin-2-yl)oxy)methyl)hexahydro-1H-pyrrolizin-2-ol 2,2,2-trifluoroacetic acid], the results for the IC50 on K-Ras G12V [1], on K-Ras G12V [2] and on K-Ras G12D were 4.42 nM, 161 nM and 66.7 nM, respectively.

In the case of `C#Cc1c(F)ccc2cc(O)cc(-c3ncc4c(N(C)[C@H]5C[C@@H]5C#N)nc(OC[C@@]56CCCN5C[C@H](F)C6)nc4c3F)c12` (racemic) [Compound 44, trans-2-((7-(8-ethynyl-7-fluoro-3-hydroxynaphthalen-1-yl)-8-fluoro-2-(((2R,7aS)-2-fluorotetrahydro-1H-pyrrolizin-7a(5H)-yl)methoxy)pyrido[4,3-d]pyrimidin-4-yl) (methyl)amino)cyclopropane-1-carbonitrile 2,2,2-trifluoroacetic acid], the IC50 on K-Ras G12V [1] was 13.9 nM; on K-Ras G12V [2] it was more than 1000 nM; at K-Ras G12D, more than 1000 nM.

As to `C#Cc1c(F)ccc2cc(O)cc(-c3ncc4c(N(C)[C@@H]5C[C@H]5F)nc(OC[C@@]56CCCN5C[C@H](F)C6)nc4c3F)c12` [Compound 3B, 5-ethynyl-6-fluoro-4-(8-fluoro-4-(((1R,2R)-2-fluorocyclopropyl)(methyl)amino)-2-(((2R,7aS)-2-fluorotetrahydro-1H-pyrrolizin-7a(5H)-yl)methoxy)pyrido[4,3-d]pyrimidin-7-yl)naphthalen-2-ol 2,2,2-trifluoroacetic acid], the IC50 is 12.2 nM at K-Ras G12V [1]; 770 nM on K-Ras G12V [2]; 206 nM at K-Ras G12D; 87.8 nM in assay [3] (144 h, AGS (K-Ras G12D), absolute IC50, read-out: Cell Growth Inhibition, IC50, AGS); 1290 nM in assay [3] (Homo sapiens, ASPC1, 144 h, AsPC-1 (K-Ras G12D), absolute IC50, read-out: Cell Growth Inhibition, IC50, AsPC-1); 120 nM in assay [3] (setting [4]).

Consider `C#Cc1c(F)ccc2cc(O)cc(-c3ncc4c(N(CC5CC5)C5CC5)nc(OC[C@@]56CCCN5C[C@H](F)C6)nc4c3F)c12` [Compound 14, 4-(4-(cyclopropyl(cyclopropylmethyl)amino)-8-fluoro-2-(((2R,7aS)-2-fluorotetrahydro-1H-pyrrolizin-7a(5H)-yl)methoxy)pyrido[4,3-d]pyrimidin-7-yl)-5-ethynyl-6-fluoronaphthalen-2-ol], for which the IC50 on K-Ras G12V [1] was 8.85 nM; at K-Ras G12V [2], more than 1000 nM; at K-Ras G12D it was 607 nM; in assay [3] (setting [4]), 259 nM.

For the compound `C#Cc1c(F)ccc2cc(O)cc(-c3nc(OC)c4c(NC5CC5)nc(OC[C@@]56CCCN5C[C@H](F)C6)nc4c3F)c12` [Compound 34, 4-(4-(cyclopropylamino)-8-fluoro-2-(((2R, 7aS)-2-fluorotetrahydro-1H-pyrrolizin-7a(5H)-yl)methoxy)-5-methoxypyrido[4,3-d]pyrimidin-7-yl)-5-ethynyl-6-fluoronaphthalen-2-ol], the results for the IC50 at K-Ras G12V [1], on K-Ras G12V [2] and at K-Ras G12D were 24 nM, more than 1000 nM and 704 nM, respectively.

With `C#Cc1c(F)ccc2cc(O)cc(-c3nc(C#N)c4c(N(C)C5CC5)nc(OC[C@@]56CCCN5C[C@H](F)C6)nc4c3F)c12` [Compound 35, 4-(cyclopropyl(methyl)amino)-7-(8-ethynyl-7-fluoro-3-hydroxynaphthalen-1-yl)-8-fluoro-2-(((2R,7aS)-2-fluorotetrahydro-1H-pyrrolizin-7a(5H)-yl)methoxy)pyrido[4,3-d] pyrimidine-5-carbonitrile], the IC50 was 117 nM on K-Ras G12V [1], more than 1000 nM on K-Ras G12V [2] and more than 1000 nM on K-Ras G12D.

Consider `C#Cc1c(F)ccc2cc(O)cc(-c3ncc4c(N(CCOC)C5CC5)nc(OC[C@@]56CCCN5C[C@H](F)C6)nc4c3F)c12` [Compound 36, 4-(4-(cyclopropyl(2-methoxyethyl)amino)-8-fluoro-2-(((2R,7aS)-2-fluorotetrahydro-1H-pyrrolizin-7a(5H)-yl)methoxy)pyrido [4,3-d]pyrimidin-7-yl)-5-ethynyl-6-fluoro naphthalen-2-ol 2,2,2-trifluoroacetic acid], for which the IC50 is 18.4 nM at K-Ras G12V [1], more than 1000 nM at K-Ras G12V [2] and more than 1000 nM at K-Ras G12D.

With `C#Cc1c(F)ccc2cc(O)cc(-c3ncc4c(N(CCF)C5CC5)nc(OC[C@@]56CCCN5C[C@H](F)C6)nc4c3F)c12` [Compound 37, 4-(4-(cyclopropyl(2-fluoroethyl)amino)-8-fluoro-2-(((2R,7aS)-2-fluorotetrahydro-1H-pyrrolizin-7a(5H)-yl)methoxy)pyrido [4,3-d]pyrimidin-7-yl)-5-ethynyl-6-fluoro-naphthalen-2-ol 2,2,2-trifluoroacetic acid], the IC50 at K-Ras G12V [1] is 24.5 nM; at K-Ras G12V [2], more than 1000 nM; at K-Ras G12D, more than 1000 nM.

In the case of `C#Cc1c(F)ccc2cc(O)cc(-c3ncc4c(N(CC(=O)OCC)C5CC5)nc(OC[C@@]56CCCN5C[C@H](F)C6)nc4c3F)c12` [Compound 38, Ethyl N-cyclopropyl-N-(7-(8-ethynyl-7-fluoro-3-hydroxynaphthalen-1-yl)-8-fluoro-2-(((2R, 7aS)-2-fluorotetrahydro-1H-pyrrolizin-7a(5H)-yl)methoxy)pyrido[4,3-d]pyrimidin-4-yl)glycinate 2,2,2-trifluoroacetic acid], the IC50 was 121 nM at K-Ras G12V [1], more than 1000 nM at K-Ras G12V [2] and more than 1000 nM at K-Ras G12D.

In the case of `C#Cc1c(F)ccc2cc(O)cc(-c3ncc4c(N(C)[C@@H]5C[C@H]5OC)nc(OC[C@@]56CCCN5C[C@H](F)C6)nc4c3F)c12` [Compound 41, 5-ethynyl-6-fluoro-4-(8-fluoro-2-(((2R,7aS)-2-fluorotetrahydro-1H-pyrrolizin-7a(5H)-yl)methoxy)-4-((trans-2-methoxycyclo-propyl)(methyl)amino)pyrido[4,3-d]pyrimidin-7-yl)naphthalen-2-ol], the IC50 is 25.9 nM on K-Ras G12V [1], more than 1000 nM at K-Ras G12V [2] and more than 1000 nM on K-Ras G12D.

In the case of `C#Cc1c(F)ccc2cc(O)cc(-c3ncc4c(N(C)[C@@H]5C[C@H]5COC)nc(OC[C@@]56CCCN5C[C@H](F)C6)nc4c3F)c12` [Compound 42, 5-ethynyl-6-fluoro-4-(8-fluoro-2-(((2R,7aS)-2-fluorotetrahydro-1H-pyrrolizin-7a(5H)-yl)methoxy)-4-((trans-2-(methoxymethyl)cyclopropyl)(methyl)amino)pyrido[4,3-d]pyrimidin-7-yl)naphthalen-2-ol 2,2,2-trifluoroacetic acid], the IC50 on K-Ras G12V [1] is 34.7 nM; at K-Ras G12V [2], more than 1000 nM; at K-Ras G12D it was more than 1000 nM.

For `C#Cc1c(F)ccc2cc(O)cc(-c3ncc4c(N(C)[C@@H]5C[C@H]5C(F)(F)F)nc(OC[C@@]56CCCN5C[C@H](F)C6)nc4c3F)c12` [Compound 43, 5-ethynyl-6-fluoro-4-(8-fluoro-2-(((2R,7aS)-2-fluorotetrahydro-1H-pyrrolizin-7a(5H)-yl)methoxy)-4-(methyl(trans-2-(trifluoro-methyl)cyclopropyl)amino)pyrido[4,3-d]pyrimidin-7-yl)naphthalen-2-ol 2,2,2-trifluoroacetic acid], the IC50 at K-Ras G12V [1] was 20.2 nM; at K-Ras G12V [2], more than 1000 nM; at K-Ras G12D it was more than 1000 nM.

For `C#Cc1c(F)ccc2cc(O)cc(-c3ncc4c(N(C)C5CC56CC6)nc(OC[C@@]56CCCN5C[C@H](F)C6)nc4c3F)c12` (stereo partly drawn) [Compound 51, 5-ethynyl-6-fluoro-4-(8-fluoro-2-(((2R,7aS)-2-fluorotetrahydro-1H-pyrrolizin-7a(5H)-yl)methoxy)-4-(methyl(spiro[2.2]pentan-1-yl)amino)pyrido[4,3-d]pyrimidin-7-yl)naphthalen-2-ol], the IC50 on K-Ras G12V [1] is 16.2 nM; at K-Ras G12V [2] it was more than 1000 nM; at K-Ras G12D, 744 nM.

As to `C#Cc1c(F)ccc2cc(O)cc(-c3ncc4c(N(C)C5CC56CCC6)nc(OC[C@@]56CCCN5C[C@H](F)C6)nc4c3F)c12` (stereo partly drawn) [Compound 52, 5-ethynyl-6-fluoro-4-(8-fluoro-2-(((2R,7aS)-2-fluorotetrahydro-1H-pyrrolizin-7a(5H)-yl)methoxy)-4-(methyl(spiro[2.3]hexan-1-yl)amino)pyrido[4,3-d]pyrimidin-7-yl)naphthalen-2-ol], the IC50 on K-Ras G12V [1] was 76 nM; on K-Ras G12V [2], more than 1000 nM; on K-Ras G12D, more than 1000 nM.

As to `C#Cc1c(F)ccc2cc(O)cc(-c3ncc4c(NC5(C(F)(F)F)CC5)nc(OC[C@@]56CCCN5C[C@H](F)C6)nc4c3F)c12` [Compound 57, 5-ethynyl-6-fluoro-4-(8-fluoro-2-(((2R,7aS)-2-fluorotetrahydro-1H-pyrrolizin-7a(5H)-yl)methoxy)-4-((1-(trifluoromethyl)cyclopropyl)amino)pyrido[4,3-d]pyrimidin-7-yl)naphthalen-2-ol], the results for the IC50 on K-Ras G12V [1], on K-Ras G12V [2] and on K-Ras G12D were 15.1 nM, more than 1000 nM and more than 1000 nM, respectively.
